{
  "source": "paper PMC12820563",
  "note": "The other results are listed elsewhere or left out. The list includes weakly bound sequences.",
  "data": [
    {"biological_target": "T1, MBP-FoxP3dN (UniProt Q99JB6)", "T1 sequence": "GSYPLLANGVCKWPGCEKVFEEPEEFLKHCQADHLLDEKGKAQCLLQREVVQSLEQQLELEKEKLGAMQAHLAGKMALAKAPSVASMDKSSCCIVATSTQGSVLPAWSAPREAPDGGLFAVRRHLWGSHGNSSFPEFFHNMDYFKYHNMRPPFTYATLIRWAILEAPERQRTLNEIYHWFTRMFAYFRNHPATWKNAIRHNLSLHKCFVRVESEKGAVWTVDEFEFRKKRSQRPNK", "assay": "PD-seq (MBP pull-down with sequencing)", "conditions": "20 mM Tris-HCl pH 7.5, 100 mM NaCl, 1.5 mM MgCl2, 0.4 uM protein, 0.1 uM dsDNA library, 30 min, room temperature, amylose pull-down; high values mean tight binding; double strand, one strand shown", "values": [
      {"sequence": "GATGATTGTTCTCCCAGCTGATGAATTGATTTGGTCGAGTAAACAAATTTTCCTAATCTTTCTGTTCAAGCGCCATCTAC", "binding signal (RPM ratio (pull-down/input))": 2.12},
      {"sequence": "GATGATTGTTCTCCCAGCTGATGAATTGAATGGTTCGAGTAAACAAATTTTCCTAATCTTTCTGTTCAAGCGCCATCTAC", "binding signal (RPM ratio (pull-down/input))": 0.743},
      {"sequence": "GATGATTGTTCTCCCAGCTGATGAATTGCAATTATCGAGTAAACAAATTTTCCTAATCTTTCTGTTCAAGCGCCATCTAC", "binding signal (RPM ratio (pull-down/input))": 2.5},
      {"sequence": "GATGATTGTTCTCCCAGCTGATGAATTATGTTGGTCGAGTAAACAAATTTTCCTAATCTTTCTGTTCAAGCGCCATCTAC", "binding signal (RPM ratio (pull-down/input))": 6.57},
      {"sequence": "GATGATTGTTCTCCCAGCTGATGAATTTACTGCGTCGAGTAAACAAATTTTCCTAATCTTTCTGTTCAAGCGCCATCTAC", "binding signal (RPM ratio (pull-down/input))": 0.723},
      {"sequence": "GATGATTGTTCTCCCAGCTGATGAATTATCCTACTCGAGTAAACAAATTTTCCTAATCTTTCTGTTCAAGCGCCATCTAC", "binding signal (RPM ratio (pull-down/input))": 0.31},
      {"sequence": "GATGATTGTTCTCCCAGCTGATGAATTGCTGGAATCGAGTAAACAAATTTTCCTAATCTTTCTGTTCAAGCGCCATCTAC", "binding signal (RPM ratio (pull-down/input))": 0.374},
      {"sequence": "GATGATTGTTCTCCCAGCTGATGAATTTTCATTTTCGAGTAAACAAATTTTCCTAATCTTTCTGTTCAAGCGCCATCTAC", "binding signal (RPM ratio (pull-down/input))": 0.412},
      {"sequence": "GATGATTGTTCTCCCAGCTGATGAATTAGTCTTATCGAGTAAACAAATTTTCCTAATCTTTCTGTTCAAGCGCCATCTAC", "binding signal (RPM ratio (pull-down/input))": 0.725},
      {"sequence": "GATGATTGTTCTCCCAGCTGATGAATTCCTGGGTTCGAGTAAACAAATTTTCCTAATCTTTCTGTTCAAGCGCCATCTAC", "binding signal (RPM ratio (pull-down/input))": 0.257},
      {"sequence": "GATGATTGTTCTCCCAGCTGATGAATTTATGCATTCGAGTAAACAAATTTTCCTAATCTTTCTGTTCAAGCGCCATCTAC", "binding signal (RPM ratio (pull-down/input))": 7.56},
      {"sequence": "GATGATTGTTCTCCCAGCTGATGAATTCCAGGTCTCGAGTAAACAAATTTTCCTAATCTTTCTGTTCAAGCGCCATCTAC", "binding signal (RPM ratio (pull-down/input))": 0.374},
      {"sequence": "GATGATTGTTCTCCCAGCTGATGAATTTGGTGGTTCGAGTAAACAAATTTTCCTAATCTTTCTGTTCAAGCGCCATCTAC", "binding signal (RPM ratio (pull-down/input))": 2},
      {"sequence": "GATGATTGTTCTCCCAGCTGATGAATTTGACGACTCGAGTAAACAAATTTTCCTAATCTTTCTGTTCAAGCGCCATCTAC", "binding signal (RPM ratio (pull-down/input))": 0.407},
      {"sequence": "GATGATTGTTCTCCCAGCTGATGAATTTAGGTCATCGAGTAAACAAATTTTCCTAATCTTTCTGTTCAAGCGCCATCTAC", "binding signal (RPM ratio (pull-down/input))": 0.66},
      {"sequence": "GATGATTGTTCTCCCAGCTGATGAATTCCTATGCTCGAGTAAACAAATTTTCCTAATCTTTCTGTTCAAGCGCCATCTAC", "binding signal (RPM ratio (pull-down/input))": 0.379},
      {"sequence": "GATGATTGTTCTCCCAGCTGATGAATTTGGTCGATCGAGTAAACAAATTTTCCTAATCTTTCTGTTCAAGCGCCATCTAC", "binding signal (RPM ratio (pull-down/input))": 0.337},
      {"sequence": "GATGATTGTTCTCCCAGCTGATGAATTGTCGCTCTCGAGTAAACAAATTTTCCTAATCTTTCTGTTCAAGCGCCATCTAC", "binding signal (RPM ratio (pull-down/input))": 0.643},
      {"sequence": "GATGATTGTTCTCCCAGCTGATGAATTTTAAAGATCGAGTAAACAAATTTTCCTAATCTTTCTGTTCAAGCGCCATCTAC", "binding signal (RPM ratio (pull-down/input))": 0.2},
      {"sequence": "GATGATTGTTCTCCCAGCTGATGAATTGCCCTGGTCGAGTAAACAAATTTTCCTAATCTTTCTGTTCAAGCGCCATCTAC", "binding signal (RPM ratio (pull-down/input))": 0.333},
      {"sequence": "GATGATTGTTCTCCCAGCTGATGAATTTAGAAAATCGAGTAAACAAATTTTCCTAATCTTTCTGTTCAAGCGCCATCTAC", "binding signal (RPM ratio (pull-down/input))": 0.236},
      {"sequence": "GATGATTGTTCTCCCAGCTGATGAATTTCAACACTCGAGTAAACAAATTTTCCTAATCTTTCTGTTCAAGCGCCATCTAC", "binding signal (RPM ratio (pull-down/input))": 0.617},
      {"sequence": "GATGATTGTTCTCCCAGCTGATGAATTCGGTGAATCGAGTAAACAAATTTTCCTAATCTTTCTGTTCAAGCGCCATCTAC", "binding signal (RPM ratio (pull-down/input))": 0.279},
      {"sequence": "GATGATTGTTCTCCCAGCTGATGAATTAGTAAGATCGAGTAAACAAATTTTCCTAATCTTTCTGTTCAAGCGCCATCTAC", "binding signal (RPM ratio (pull-down/input))": 0.273},
      {"sequence": "GATGATTGTTCTCCCAGCTGATGAATTATTCTTTTCGAGTAAACAAATTTTCCTAATCTTTCTGTTCAAGCGCCATCTAC", "binding signal (RPM ratio (pull-down/input))": 0.326},
      {"sequence": "GATGATTGTTCTCCCAGCTGATGAATTGCCGGTTTCGAGTAAACAAATTTTCCTAATCTTTCTGTTCAAGCGCCATCTAC", "binding signal (RPM ratio (pull-down/input))": 0.667},
      {"sequence": "GATGATTGTTCTCCCAGCTGATGAATTCGCGTTCTCGAGTAAACAAATTTTCCTAATCTTTCTGTTCAAGCGCCATCTAC", "binding signal (RPM ratio (pull-down/input))": 1.15},
      {"sequence": "GATGATTGTTCTCCCAGCTGATGAATTCAATGCCTCGAGTAAACAAATTTTCCTAATCTTTCTGTTCAAGCGCCATCTAC", "binding signal (RPM ratio (pull-down/input))": 1.05},
      {"sequence": "GATGATTGTTCTCCCAGCTGATGAATTCCAATGGTCGAGTAAACAAATTTTCCTAATCTTTCTGTTCAAGCGCCATCTAC", "binding signal (RPM ratio (pull-down/input))": 0.37},
      {"sequence": "GATGATTGTTCTCCCAGCTGATGAATTTGTGCCCTCGAGTAAACAAATTTTCCTAATCTTTCTGTTCAAGCGCCATCTAC", "binding signal (RPM ratio (pull-down/input))": 2.05},
      {"sequence": "GATGATTGTTCTCCCAGCTGATGAATTACCTTCTTCGAGTAAACAAATTTTCCTAATCTTTCTGTTCAAGCGCCATCTAC", "binding signal (RPM ratio (pull-down/input))": 0.339},
      {"sequence": "GATGATTGTTCTCCCAGCTGATGAATTTGACCGTTCGAGTAAACAAATTTTCCTAATCTTTCTGTTCAAGCGCCATCTAC", "binding signal (RPM ratio (pull-down/input))": 0.355},
      {"sequence": "GATGATTGTTCTCCCAGCTGATGAATTGCTAGTTTCGAGTAAACAAATTTTCCTAATCTTTCTGTTCAAGCGCCATCTAC", "binding signal (RPM ratio (pull-down/input))": 0.902},
      {"sequence": "GATGATTGTTCTCCCAGCTGATGAATTAAGACAGTCGAGTAAACAAATTTTCCTAATCTTTCTGTTCAAGCGCCATCTAC", "binding signal (RPM ratio (pull-down/input))": 0.324},
      {"sequence": "GATGATTGTTCTCCCAGCTGATGAATTTTTTATCTCGAGTAAACAAATTTTCCTAATCTTTCTGTTCAAGCGCCATCTAC", "binding signal (RPM ratio (pull-down/input))": 0.243},
      {"sequence": "GATGATTGTTCTCCCAGCTGATGAATTGTTACACTCGAGTAAACAAATTTTCCTAATCTTTCTGTTCAAGCGCCATCTAC", "binding signal (RPM ratio (pull-down/input))": 1.28},
      {"sequence": "GATGATTGTTCTCCCAGCTGATGAATTTTAGATTTCGAGTAAACAAATTTTCCTAATCTTTCTGTTCAAGCGCCATCTAC", "binding signal (RPM ratio (pull-down/input))": 0.328},
      {"sequence": "GATGATTGTTCTCCCAGCTGATGAATTGCGGGCATCGAGTAAACAAATTTTCCTAATCTTTCTGTTCAAGCGCCATCTAC", "binding signal (RPM ratio (pull-down/input))": 1.32},
      {"sequence": "GATGATTGTTCTCCCAGCTGATGAATTACGTCGTTCGAGTAAACAAATTTTCCTAATCTTTCTGTTCAAGCGCCATCTAC", "binding signal (RPM ratio (pull-down/input))": 0.719},
      {"sequence": "GATGATTGTTCTCCCAGCTGATGAATTCGTTTTATCGAGTAAACAAATTTTCCTAATCTTTCTGTTCAAGCGCCATCTAC", "binding signal (RPM ratio (pull-down/input))": 1.55}
    ]}
  ]
}
